These results are taken from PMC7819943, “Rice protein-binding microarrays: a tool to detect cis-acting elements near promoter regions in rice”.

The other results are listed elsewhere or left out.

This assay concerns the target T1, OsWOX13 (Oryza sativa, UniProt Q5QMM3 1-267).
T1 sequence: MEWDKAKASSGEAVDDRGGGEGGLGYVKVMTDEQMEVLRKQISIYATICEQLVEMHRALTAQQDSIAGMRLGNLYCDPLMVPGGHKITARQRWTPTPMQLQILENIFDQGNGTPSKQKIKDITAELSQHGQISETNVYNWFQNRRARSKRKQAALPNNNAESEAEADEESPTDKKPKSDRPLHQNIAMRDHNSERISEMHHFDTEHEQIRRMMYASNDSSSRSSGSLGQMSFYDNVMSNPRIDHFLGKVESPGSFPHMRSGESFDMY
The assay is described as follows: protein-binding microarray (RPBM); PBS, 2% BSA, 51.3 ng/ul salmon testes DNA, 50 uM zinc acetate, 200 nM TF, 25 C, 1 h; high values mean tight binding. Conditions: protein: recombinant; tags: N-terminal polyhistidine and DsRed monomer fusion (pET32a); label: CyDye5-dUTP incorporated in the synthesized complementary strand; 3' TTTTT single-stranded linker to array surface; dsDNA, one strand shown. Summed up:
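The binding signal is fluorescence intensity per feature, in arbitrary units, read on an Axon 4000B scanner. Polyhistidine- and DsRed-tagged transcription factors (N-terminal fusions) from E. coli BL21-CodonPlus were purified on Ni–NTA and applied at 200 nM for 1 h at 25 °C to a double-stranded, BSA-blocked custom Agilent array in buffer with 50 µM zinc acetate.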
For “TCTAAATTCATCCTCAATAATTGATTCTTTTGGGAGGAGTCGGAGTCACCTAGTGCAG”, the binding signal was 20000 fluorescence intensity (a.u.).

As for “CCTTGACTTGAGGATGAAATTGACTATCTAACCTTCAGATCGGAGTCACCTAGTGCAG”, the binding signal is 9580 fluorescence intensity (a.u.).

On to “ACCAGACAGTGATTTTATATTTTAGATTTTGATGTAGGATCGGAGTCACCTAGTGCAG”, for which the binding signal was 7710 fluorescence intensity (a.u.).

On to “ACCGGATTAGTAATTCCCCGCCGCCGTGCCGAGCCCGATTCGGAGTCACCTAGTGCAG”, for which the binding signal was 11700 fluorescence intensity (a.u.).

For the sequence “ATTGAAAATTTGATTGAAATTGAAATGATGCGATGAAAATCGGAGTCACCTAGTGCAG”, the binding signal is 30700 fluorescence intensity (a.u.).

With “AATTAACCTGATAACTAACTTAACAACCTCTGCGCGCCCCCGGAGTCACCTAGTGCAG”, the binding signal is 3380 fluorescence intensity (a.u.).

With “AGTTATTCTTCCTGATTGATTTCGCAGTTGCTGGAAGAAACGGAGTCACCTAGTGCAG”, the binding signal was 21400 fluorescence intensity (a.u.).

Turning to “TACTAAATTGTAAATTTATTATTTCGGTATAATAACTTGGCGGAGTCACCTAGTGCAG”, the binding signal was 38900 fluorescence intensity (a.u.).

As to “GGTAAATTTCTCCATCCAATACGTATCTCTGTTTGATAAACGGAGTCACCTAGTGCAG”, the binding signal was 3810 fluorescence intensity (a.u.).

Consider “TCCTGCGGTCCAATCAAACGGCAATTTCTGTGTTTTGCAACGGAGTCACCTAGTGCAG”, for which the binding signal was 5640 fluorescence intensity (a.u.).

Consider “ATACGGATTGAACACTTTCTAGGACTAAGAATCGGGTAAACGGAGTCACCTAGTGCAG”, for which the binding signal is 3710 fluorescence intensity (a.u.).

On to “TAATTGGACTTAATTATCATCACCATATTAATATATTAGGCGGAGTCACCTAGTGCAG”, for which the binding signal is 23800 fluorescence intensity (a.u.).

With “ATGAATGAATGATGGAATCTTACTGGAATCTGTCGGAAATCGGAGTCACCTAGTGCAG”, the binding signal is 8860 fluorescence intensity (a.u.).

As to “TCATAAATTATTTATAATTGCCTTGCTTAATTTACGCCTTCGGAGTCACCTAGTGCAG”, the binding signal was 28900 fluorescence intensity (a.u.).

For the sequence “AATAGCTAATACTTAATTAATCACGCGCTAATGGATCGCTCGGAGTCACCTAGTGCAG”, the binding signal was 6150 fluorescence intensity (a.u.).

As to “TGTACAGTAAACTGATTAGCTCCTGCACTTCAGTTAATTGCGGAGTCACCTAGTGCAG”, the binding signal is 20800 fluorescence intensity (a.u.).

“AGTTTGATTTACAAGTGCTTTCATATGTATGTTTGTTTTACGGAGTCACCTAGTGCAG”: the binding signal is 12400 fluorescence intensity (a.u.).

For “AGTACTGATTATATCCCCTAATAAAAGAAACATGAAGCAACGGAGTCACCTAGTGCAG”, the binding signal is 5590 fluorescence intensity (a.u.).

With “GAAAATTTAAACCGACATAAACAAATTTTCGAATATTTATCGGAGTCACCTAGTGCAG”, the binding signal was 3880 fluorescence intensity (a.u.).

“ATATATATATATATATATATACATACATATACACACACACCGGAGTCACCTAGTGCAG”: the binding signal is 7300 fluorescence intensity (a.u.).

For the sequence “TTATTAAATTGGTTATAAATGAATTGTAGCTGGTTGATGGCGGAGTCACCTAGTGCAG”, the binding signal is 50000 fluorescence intensity (a.u.).

For the sequence “TGATTAATCAAGAGCATTTTGCACCATTAGTCGTTGGATGCGGAGTCACCTAGTGCAG”, the binding signal is 3190 fluorescence intensity (a.u.).

Consider “TTGTTGATAACCGATAATTTGGTAAATTATTGATTTTATTCGGAGTCACCTAGTGCAG”, for which the binding signal was 19900 fluorescence intensity (a.u.).

Consider “CTTGATTATTTCAATCTTGGAAACTGCAGGTGGAGAGAGGCGGAGTCACCTAGTGCAG”, for which the binding signal is 46000 fluorescence intensity (a.u.).

In the case of “ACAATCCACTAACTGGAATTACTTCTATAGAGGAGCACACCGGAGTCACCTAGTGCAG”, the binding signal was 4390 fluorescence intensity (a.u.).

Consider “ATCTTTATAATTTCTTTGTTGACATGCAGAGTGTCCGTTGCGGAGTCACCTAGTGCAG”, for which the binding signal was 8960 fluorescence intensity (a.u.).

Take “GTTCTTGATTGCGCCGCGTTGATATGTGAATTTAGCAGCTCGGAGTCACCTAGTGCAG”: the binding signal is 35400 fluorescence intensity (a.u.).

On to “CCTATTGTAATTTCTTAATGTTGTAAAGGCGATGTACCGACGGAGTCACCTAGTGCAG”, for which the binding signal was 4720 fluorescence intensity (a.u.).

In the case of “TTGTGATTTAATTTATCATCAACTATTCTTTTAAGCATGACGGAGTCACCTAGTGCAG”, the binding signal was 40500 fluorescence intensity (a.u.).

On to “CCTAAACTAATCTCAAACAATCTAACCTATAAGCAAGCAGCGGAGTCACCTAGTGCAG”, for which the binding signal is 8610 fluorescence intensity (a.u.).

Turning to “ATGCAATTGACTAAGCAAAAGGGAGCAGTCGTCCTAGTGGCGGAGTCACCTAGTGCAG”, the binding signal is 7920 fluorescence intensity (a.u.).

As to “ATAAAACAAATTATAGATTCCACCTATAAACTGCGAGATGCGGAGTCACCTAGTGCAG”, the binding signal was 8890 fluorescence intensity (a.u.).

Regarding “CTCTAATTTTAACCAAAATACAAAATTTACGCTGAACTAACGGAGTCACCTAGTGCAG”, the binding signal was 14700 fluorescence intensity (a.u.).

“AATAAATTTAACCACTGTAACAATGTATTTCTCTCAGAATCGGAGTCACCTAGTGCAG”: the binding signal is 6380 fluorescence intensity (a.u.).

Take “TATCATTGATTTCACTAAGGAGTGTGGAAGTCTGGGATCTCGGAGTCACCTAGTGCAG”: the binding signal was 3270 fluorescence intensity (a.u.).

Turning to “TGGATTAAACTAATTTACTGATAAGGTGCGTACAAAATTGCGGAGTCACCTAGTGCAG”, the binding signal is 9850 fluorescence intensity (a.u.).

“TCATTAACTTAATGAAGAACAAAACCCCATCATATCCGTTCGGAGTCACCTAGTGCAG”: the binding signal is 4370 fluorescence intensity (a.u.).

Turning to “AGCTATTAGTAGATTGGCTATAAATGAATTGGAGTTAGTACGGAGTCACCTAGTGCAG”, the binding signal is 14900 fluorescence intensity (a.u.).

As to “GAACTAATTTACTCCTAATCGTGCACTCCTTCACCACCAACGGAGTCACCTAGTGCAG”, the binding signal was 24000 fluorescence intensity (a.u.).

On to “CCATACAATTGATTACTGGGGCAAAGCTGTCTTAAATACGCGGAGTCACCTAGTGCAG”, for which the binding signal was 28100 fluorescence intensity (a.u.).

As to “GGCAAAACCGTAAATTTATCACATCCTGGTTTGCGCTGTGCGGAGTCACCTAGTGCAG”, the binding signal was 3390 fluorescence intensity (a.u.).

Take “ACCACCTGATAGCTAAGCTAATTAATTAAGCTAAGTACACCGGAGTCACCTAGTGCAG”: the binding signal is 16600 fluorescence intensity (a.u.).
